The record followed here is article PMC4336329 (PLoS ONE, 2015).

SMILES strings stand for the structures. About 2,200 (0.71%) of roughly 310,000 compounds showed an effect of 50% or more. The effect is printed as a negative number. The list shows a part of the results.

Sequence of human ether-à-go-go-related gene (hERG) potassium channel (Q12809 whole entry, looked up): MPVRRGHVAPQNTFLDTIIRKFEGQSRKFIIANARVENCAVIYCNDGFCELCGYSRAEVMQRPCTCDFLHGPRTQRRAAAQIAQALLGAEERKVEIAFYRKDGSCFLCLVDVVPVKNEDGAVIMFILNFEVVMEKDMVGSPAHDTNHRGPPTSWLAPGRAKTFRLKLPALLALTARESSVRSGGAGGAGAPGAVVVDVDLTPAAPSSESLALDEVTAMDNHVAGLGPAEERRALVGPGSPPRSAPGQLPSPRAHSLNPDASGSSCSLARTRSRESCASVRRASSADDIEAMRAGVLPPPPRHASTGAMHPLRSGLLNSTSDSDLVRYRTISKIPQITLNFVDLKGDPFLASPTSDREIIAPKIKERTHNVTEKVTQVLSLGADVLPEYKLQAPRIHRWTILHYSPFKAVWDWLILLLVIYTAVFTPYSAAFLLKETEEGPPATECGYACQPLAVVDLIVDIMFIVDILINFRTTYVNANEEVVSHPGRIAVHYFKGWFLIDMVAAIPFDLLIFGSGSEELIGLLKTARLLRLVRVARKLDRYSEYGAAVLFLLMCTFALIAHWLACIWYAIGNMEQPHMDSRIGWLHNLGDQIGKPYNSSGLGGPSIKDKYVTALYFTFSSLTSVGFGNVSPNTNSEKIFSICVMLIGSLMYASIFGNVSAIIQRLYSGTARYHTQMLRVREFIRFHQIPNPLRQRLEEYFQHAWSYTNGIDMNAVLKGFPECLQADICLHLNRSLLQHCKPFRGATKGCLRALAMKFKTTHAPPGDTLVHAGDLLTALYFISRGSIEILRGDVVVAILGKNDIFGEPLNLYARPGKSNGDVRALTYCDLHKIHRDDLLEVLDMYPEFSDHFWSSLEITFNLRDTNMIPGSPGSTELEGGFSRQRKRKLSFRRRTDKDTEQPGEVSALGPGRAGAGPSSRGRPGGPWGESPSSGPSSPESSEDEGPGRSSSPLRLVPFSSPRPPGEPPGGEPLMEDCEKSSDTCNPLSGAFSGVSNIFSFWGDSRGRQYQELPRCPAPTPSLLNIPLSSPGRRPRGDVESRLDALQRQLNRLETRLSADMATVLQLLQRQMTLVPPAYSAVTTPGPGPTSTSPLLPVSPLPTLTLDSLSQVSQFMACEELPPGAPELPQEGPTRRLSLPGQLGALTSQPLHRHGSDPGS

The test addresses human ether-à-go-go-related gene (hERG) potassium channel (human, UniProt Q12809). Kind of test: primary screen, population patch clamp on CHO cells stably expressing hERG.
Regarding `Cc1cc(C)c2sc(NC(=O)C3CC3)nc2c1`, the “hERG current change (%, negative = inhibition) at 1uM” value is reported as 4.81%. The result for `COc1cc(C)c(C(C)C)cc1S(=O)(=O)N1CCN(C)CC1` reads 11.7%; that for `O=C(Cc1c(O)c2ccccc2oc1=O)c1ccc(C(F)(F)F)cc1`, 7.79%. In the case of `COc1ccc2cc(C(C)C(=O)N3CCC(C)CC3)ccc2c1` (centres unmarked), the “hERG current change (%, negative = inhibition) at 1uM” value is given as -21.8%. For the molecule `COc1ccc(Cl)cc1NC(=O)CC(C)c1ccccc1` (centres unmarked), the “hERG current change (%, negative = inhibition) at 1uM” value came out at 10.1%. The result for `CC(=O)N(C1=NCCCS1)c1ccc(Cl)cc1` reads 15.2%; that for `CNC(=O)C1CCC(=O)N1Cc1ccc(C)cc1` (centres unmarked), 9.4%; that for `O=C(NCC12CC3CC(CC(C3)C1)C2)c1nc2ncccn2n1`, -15.9%. The value for `COc1ccccc1NS(=O)(=O)c1cccc(NC(=O)c2ccc3ccccc3n2)c1` was 16%; that for `O=C(COC(=O)c1ccccc1NCCO)NCCc1ccccc1` was 11.7%. The result for `Cc1[nH]c2ccc(C(=O)O)cc2c1C` reads 10.2%; that for `N#CC(C#N)=Cc1ccc(NC(=O)c2ccc(Br)cc2)cc1`, 9.08%; that for `O=C(c1ccc(C23CC4CC(CC(C4)C2)C3)o1)N1CCOCC1`, -18.5%. Consider `CC1CCc2c(C(=O)Nc3ccccn3)csc2C1` (centres unmarked), for which the “hERG current change (%, negative = inhibition) at 1uM” value worked out at 6.82%. In the case of `Cc1ccnc(NS(=O)(=O)c2cc([N+](=O)[O-])ccc2C)c1`, the “hERG current change (%, negative = inhibition) at 1uM” value stood at 8.83%. The value for `S=C(NCc1ccccc1)NCc1ccc(CNC(=S)NCc2ccccc2)cc1` was 13.1%; that for `COc1cccc(NC(=O)CSCC(=O)O)c1` was 5.38%.

Regarding `O=C(CCNS(=O)(=O)c1ccc(Cl)cc1)NCc1ccccn1`, the “hERG current change (%, negative = inhibition) at 1uM” value is given as -0.0436%. The value for `Cc1nc2sc(C(c3cccs3)N3CCOCC3)c(O)n2n1` (centres unmarked) was -6.84%; that for `O=C1CCCc2c1cc(C(=O)Nc1ccc(Br)cn1)c(=O)n2-c1ccccc1` was 12%. Take `Cc1ccc(-c2nnc(OCC3CCCO3)c3ccccc23)cc1` (centres unmarked): the “hERG current change (%, negative = inhibition) at 1uM” value turned out to be 2.05%.

For the molecule `COc1ccc(C(c2c(O)nc[nH]c2=O)c2c(O)nc[nH]c2=O)cc1`, the “hERG current change (%, negative = inhibition) at 1uM” value was determined as 18.6%.

Take `Nc1nc(=S)[nH]c2c1C1(CCCCC1)Cc1ccccc1-2`: the “hERG current change (%, negative = inhibition) at 1uM” value worked out at 4.85%. The value for `Cc1noc(C)c1S(=O)(=O)N1CCCC(C(=O)NCCc2ccccc2)C1` (centres unmarked) was 6.36%; that for `COc1ccc2cc(C3(C)NC(=O)N(CC(=O)Nc4c(C)n(C)n(-c5ccccc5)c4=O)C3=O)ccc2c1` (centres unmarked) was 0.395%. In the case of `COc1cccc(C(C(=O)NC(C)(C)C)N(CC(C)C)C(=O)CCC(=O)Nc2cc(C)on2)c1OC` (centres unmarked), the “hERG current change (%, negative = inhibition) at 1uM” value came to 7.63%. The result for `CC1(C)Cc2c(c(-c3ccccc3)nc(N3CCOCC3)c2C(N)=O)CO1` reads 1.03%; that for `Cc1ccc(N/C(=N/S(=O)(=O)c2cccs2)c2ccccc2)c(C)c1`, 17.8%; that for `CC(C)CC(N)c1cn([C@@H](CCC(=O)O)C(=O)N2CCNCC2)nn1.Cl` (some centres unmarked), 17%.

`CCN(CC)S(=O)(=O)c1cnccc1N1CCN(c2cccc(Cl)c2)CC1`: the “hERG current change (%, negative = inhibition) at 1uM” value is on record as 4.99%. The result for `COc1cc(C(=O)NC(C)c2cnn(-c3ccccc3C)c2C)cc(OC)c1OC` (centres unmarked) reads -24.8%; that for `COc1ccccc1N(C(=O)Cn1nnc(-c2ccc(C)o2)n1)C(C(=O)NC1CCCC1)c1ccncc1` (centres unmarked), 19.4%. Turning to `CCOc1ccc(C2/C(=C(/O)c3ccc4c(c3)CC(C)O4)C(=O)C(=O)N2CCCn2ccnc2)cc1OCC` (centres unmarked), the “hERG current change (%, negative = inhibition) at 1uM” value is reported as 22.3%. On to `CCC(=O)NC(=S)Nc1cccc(Cl)c1N1CCCC1`, for which the “hERG current change (%, negative = inhibition) at 1uM” value was 9.89%. The value for `COc1ccc(N2C(=O)C(CC(=O)Nc3ccccc3)N(Cc3ccc4c(c3)OCO4)C2=O)cc1` (centres unmarked) was 15.6%; that for `CCOc1ccc(/C=N/OCC(=O)NCc2ccco2)cc1` was -10%; that for `O=[N+]([O-])c1ccc(OCCCCCN2CCOCC2)cc1` was -24.9%.

As for `COc1cc(/C=C2/C(=N)N3N=C(CC(=O)N4CCOCC4)SC3=NC2=O)ccc1OC(C)c1ccccc1` (centres unmarked), the “hERG current change (%, negative = inhibition) at 1uM” value came out at 13.9%. For `Cc1cc2cc(CCNC(=O)c3cccc([N+](=O)[O-])c3)c(=O)[nH]c2cc1C`, the “hERG current change (%, negative = inhibition) at 1uM” value is given as -37.6%. For `CCOc1ccc(N=Cc2c(O)n(Cc3ccccc3)c(=S)[nH]c2=O)cc1`, the “hERG current change (%, negative = inhibition) at 1uM” value turned out to be 12.5%.

For `O=S1(=O)CCN(OCc2ccc(F)cc2Cl)CC1`, the “hERG current change (%, negative = inhibition) at 1uM” value was 25.6%. The result for `Cc1cc(=O)c(C(=O)O)nn1-c1cccc(C(F)(F)F)c1` reads -78.9%; that for `CC(=O)NCCC(=O)N1CCCC(N(C)CCc2ccccc2)C1` (centres unmarked), -5.2%; that for `O=C(Cn1nnc2c(sc3nc4c(c(-c5ccccc5)c32)CCC4)c1=O)c1ccccc1`, 21.8%.
